Test results taken from the supplement of paper PMC4604168 (melanoma cell lines).
The list shows a part of the results. Many values rest on one well or one pass, so single values are uncertain.

What was measured:
Assay in all cases: cell count relative to DMSO control; melanoma cells; higher = more viable cells
Conditions in all cases: library dose: low library concentration; 72 h
[1] = test system: WM115
[2] = test system: WM1716
[3] = test system: WM1745
[4] = test system: WM3526
[5] = test system: WM3619
[6] = test system: WM451Lu
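Note: cell number obtained by counting DAPI-stained nuclei in high-throughput microscope images with image analysis software, screen run in 1,536-well plates.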

Structure (SMILES)	cell count [1]	cell count [2]	cell count [3]	cell count [4]	cell count [5]	cell count [6]
Nc1ncn([C@H]2C[C@H](O)[C@@H](CO)O2)c(=O)n1 [decitabine] + Nc1cccc2c1CN(C1CCC(=O)NC1=O)C2=O [lenalidomide] (first compound 0.1 µM, partner dose 1 µM)	84%	83.6%	78.5%	93.8%	87.8%	102%
CC(=O)O[C@@]12CO[C@@H]1C[C@H](O)[C@@]1(C)C(=O)[C@H](O)C3=C(C)[C@@H](OC(=O)[C@H](O)[C@@H](NC(=O)OC(C)(C)C)c4ccccc4)C[C@@](O)([C@@H](OC(=O)c4ccccc4)[C@H]21)C3(C)C [Docetaxel] + Oc1nc(-c2ccc(C(F)(F)F)cc2)nc2c1CSCC2 [XAV939] (first compound 0.0001 µM, partner dose 2 µM)	60.2%	21%	32.7%	37.4%	81.9%	64.7%
CC(=O)O[C@@]12CO[C@@H]1C[C@H](O)[C@@]1(C)C(=O)[C@H](O)C3=C(C)[C@@H](OC(=O)[C@H](O)[C@@H](NC(=O)OC(C)(C)C)c4ccccc4)C[C@@](O)([C@@H](OC(=O)c4ccccc4)[C@H]21)C3(C)C [Docetaxel] + C[C@@H]1CCN(C(=O)CC#N)C[C@@H]1N(C)c1ncnc2[nH]ccc12 [CP690550] (first compound 0.0001 µM, partner dose 1 µM)	71.5%	25.8%	50.1%	35.9%	68.2%	49.3%
Nc1nc(F)nc2c1ncn2[C@@H]1O[C@H](CO)[C@@H](O)[C@@H]1O [fludarabine] + O=S(=O)(c1ccccc1)N(CC(F)(F)F)c1ccc(C(O)(C(F)(F)F)C(F)(F)F)cc1 [T0901317] (first compound 0.2 µM, partner dose 1.4 µM)	91.6%	101%	92.1%	28%	103%	44.4%
Nc1nc(F)nc2c1ncn2[C@@H]1O[C@H](CO)[C@@H](O)[C@@H]1O [fludarabine] + Oc1nc(-c2ccc(C(F)(F)F)cc2)nc2c1CSCC2 [XAV939] (first compound 0.2 µM, partner dose 2 µM)	86.5%	67.8%	77.9%	23.9%	109%	45.3%
CC(=O)c1c(C)c2cnc(Nc3ccc(N4CCNCC4)cn3)nc2n(C2CCCC2)c1=O [palbociclib] + C#Cc1cccc(Nc2ncnc3cc(OCCOC)c(OCCOC)cc23)c1 [erlotinib] (first compound 0.04 µM, partner dose 0.8 µM)	69.8%	67%	65.9%	55.2%	63.4%	69.9%
Nc1ncn([C@H]2C[C@H](O)[C@@H](CO)O2)c(=O)n1 [decitabine] + COc1ccc(COc2ccc(Cc3cnc(N)nc3N)cc2OC)cc1 [GW2580] (first compound 0.1 µM, partner dose 1 µM)	77.9%	79.1%	97%	96.1%	89.9%	97.2%
Nc1ccn([C@@H]2O[C@H](CO)[C@@H](O)C2(F)F)c(=O)n1 [gemcitabine] + O=C1NC(=O)/C(=C/c2ccc(-c3ccc(F)cc3O)o2)S1 [AS252424] (first compound 0.0004 µM, partner dose 1 µM)	102%	109%	43.1%	105%	43.8%	109%
Nc1ncn([C@H]2C[C@H](O)[C@@H](CO)O2)c(=O)n1 [decitabine] + CC(=O)c1c(C)c2cnc(Nc3ccc(N4CCNCC4)cn3)nc2n(C2CCCC2)c1=O [palbociclib] (first compound 0.1 µM, partner dose 0.04 µM)	73.1%	62.8%	75.5%	56.2%	81.7%	83.2%
CC(=O)c1c(C)c2cnc(Nc3ccc(N4CCNCC4)cn3)nc2n(C2CCCC2)c1=O [palbociclib] + CC1(C)NC(=O)N(c2ccc([N+](=O)[O-])c(C(F)(F)F)c2)C1=O [nilutamide] (first compound 0.04 µM, partner dose 1 µM)	74.9%	67.9%	53.8%	45.6%	50.1%	72.6%
Nc1ncn([C@H]2C[C@H](O)[C@@H](CO)O2)c(=O)n1 [decitabine] + C=CCNC1=C2C[C@@H](C)C[C@H](OC)[C@H](O)[C@@H](C)/C=C(\C)[C@H](OC(N)=O)[C@@H](OC)/C=C\C=C(/C)C(=O)NC(=CC1=O)C2=O [Tanespimycin] (first compound 0.1 µM, partner dose 0.002 µM)	86.2%	83.8%	89.5%	83.8%	102%	81.8%
CO[C@H]1C[C@@H]2CC[C@@H](C)[C@@](O)(O2)C(=O)C(=O)N2CCCC[C@H]2C(=O)O[C@H]([C@H](C)C[C@@H]2CC[C@@H](OCCO)[C@H](OC)C2)CC(=O)[C@H](C)/C=C(\C)[C@@H](O)[C@@H](OC)C(=O)[C@H](C)C[C@H](C)/C=C/C=C/C=C/1C [everolimus] + CC(C)(C)c1cnc(CSc2cnc(NC(=O)C3CCNCC3)s2)o1 [SNS-032] (first compound 0.02 µM, partner dose 0.01 µM)	69.1%	83%	84.9%	63.7%	74.8%	77.9%
CC(=O)O[C@@]12CO[C@@H]1C[C@H](O)[C@@]1(C)C(=O)[C@H](O)C3=C(C)[C@@H](OC(=O)[C@H](O)[C@@H](NC(=O)OC(C)(C)C)c4ccccc4)C[C@@](O)([C@@H](OC(=O)c4ccccc4)[C@H]21)C3(C)C [Docetaxel] + Nc1ncn([C@H]2C[C@H](O)[C@@H](CO)O2)c(=O)n1 [decitabine] (first compound 0.0001 µM, partner dose 0.1 µM)	63.9%	39.1%	61.1%	48.1%	68.5%	61.7%
CO[C@H]1C[C@@H]2CC[C@@H](C)[C@@](O)(O2)C(=O)C(=O)N2CCCC[C@H]2C(=O)O[C@H]([C@H](C)C[C@@H]2CC[C@@H](OCCO)[C@H](OC)C2)CC(=O)[C@H](C)/C=C(\C)[C@@H](O)[C@@H](OC)C(=O)[C@H](C)C[C@H](C)/C=C/C=C/C=C/1C [everolimus] + O=C(Nc1ccccc1)c1cc([N+](=O)[O-])ccc1Cl [GW9662] (first compound 0.02 µM, partner dose 2 µM)	90.8%	66.5%	82.9%	68.2%	58.5%	82.8%
Nc1ncn([C@H]2C[C@H](O)[C@@H](CO)O2)c(=O)n1 [decitabine] + Cc1ccc(NC(=O)c2cccc(N(C)C)c2)cc1NC(=O)c1ccc(O)cc1 [ZM336372] (first compound 0.1 µM, partner dose 2 µM)	87.1%	86.6%	97.9%	95.6%	86.9%	96.4%
CC(=O)c1c(C)c2cnc(Nc3ccc(N4CCNCC4)cn3)nc2n(C2CCCC2)c1=O [palbociclib] + Cn1cc(/C=C2\C(=O)Nc3cccnc32)c2ccccc21 [GW441756] (first compound 0.04 µM, partner dose 0.4 µM)	70.3%	58%	71.7%	73.3%	85.5%	73.6%
Nc1ncn([C@H]2C[C@H](O)[C@@H](CO)O2)c(=O)n1 [decitabine] + Clc1ccc(Nc2nnc(Cc3ccncc3)c3ccccc23)cc1 [vatalanib] (first compound 0.1 µM, partner dose 2 µM)	82.2%	77.2%	73.4%	88.4%	88%	87.5%
CC(=O)O[C@@]12CO[C@@H]1C[C@H](O)[C@@]1(C)C(=O)[C@H](O)C3=C(C)[C@@H](OC(=O)[C@H](O)[C@@H](NC(=O)OC(C)(C)C)c4ccccc4)C[C@@](O)([C@@H](OC(=O)c4ccccc4)[C@H]21)C3(C)C [Docetaxel] + Nc1ccn([C@@H]2O[C@H](CO)[C@@H](O)C2(F)F)c(=O)n1 [gemcitabine] (first compound 0.0001 µM, partner dose 0.0004 µM)	57.2%	31%	52.4%	49.6%	70.7%	49.9%
CC(=O)O[C@@]12CO[C@@H]1C[C@H](O)[C@@]1(C)C(=O)[C@H](O)C3=C(C)[C@@H](OC(=O)[C@H](O)[C@@H](NC(=O)OC(C)(C)C)c4ccccc4)C[C@@](O)([C@@H](OC(=O)c4ccccc4)[C@H]21)C3(C)C [Docetaxel] + C#Cc1cccc(Nc2ncnc3cc(OCCOC)c(OCCOC)cc23)c1 [erlotinib] (first compound 0.0001 µM, partner dose 0.8 µM)	49.1%	38%	36%	43.3%	64.8%	58.5%
CO[C@H]1C[C@@H]2CC[C@@H](C)[C@@](O)(O2)C(=O)C(=O)N2CCCC[C@H]2C(=O)O[C@H]([C@H](C)C[C@@H]2CC[C@@H](OCCO)[C@H](OC)C2)CC(=O)[C@H](C)/C=C(\C)[C@@H](O)[C@@H](OC)C(=O)[C@H](C)C[C@H](C)/C=C/C=C/C=C/1C [everolimus] + O=c1cc(-c2cccc3c2Sc2ccccc2S3)oc(N2CCOCC2)c1 [KU55933] (first compound 0.02 µM, partner dose 1 µM)	88%	95.8%	88.7%	74.3%	85.2%	74.4%
